{"source": "paper PMC4336329", "about": "(PLoS ONE, 2015)", "note": "Among all 310,000 compounds or so, about 2,200 (0.71%) showed an effect of 50% or more. Effects have a minus sign here. Some of the results follow."}
{"target": "human ether-à-go-go-related gene (hERG) potassium channel (human, UniProt Q12809)", "sequence (Q12809 whole entry, looked up)": "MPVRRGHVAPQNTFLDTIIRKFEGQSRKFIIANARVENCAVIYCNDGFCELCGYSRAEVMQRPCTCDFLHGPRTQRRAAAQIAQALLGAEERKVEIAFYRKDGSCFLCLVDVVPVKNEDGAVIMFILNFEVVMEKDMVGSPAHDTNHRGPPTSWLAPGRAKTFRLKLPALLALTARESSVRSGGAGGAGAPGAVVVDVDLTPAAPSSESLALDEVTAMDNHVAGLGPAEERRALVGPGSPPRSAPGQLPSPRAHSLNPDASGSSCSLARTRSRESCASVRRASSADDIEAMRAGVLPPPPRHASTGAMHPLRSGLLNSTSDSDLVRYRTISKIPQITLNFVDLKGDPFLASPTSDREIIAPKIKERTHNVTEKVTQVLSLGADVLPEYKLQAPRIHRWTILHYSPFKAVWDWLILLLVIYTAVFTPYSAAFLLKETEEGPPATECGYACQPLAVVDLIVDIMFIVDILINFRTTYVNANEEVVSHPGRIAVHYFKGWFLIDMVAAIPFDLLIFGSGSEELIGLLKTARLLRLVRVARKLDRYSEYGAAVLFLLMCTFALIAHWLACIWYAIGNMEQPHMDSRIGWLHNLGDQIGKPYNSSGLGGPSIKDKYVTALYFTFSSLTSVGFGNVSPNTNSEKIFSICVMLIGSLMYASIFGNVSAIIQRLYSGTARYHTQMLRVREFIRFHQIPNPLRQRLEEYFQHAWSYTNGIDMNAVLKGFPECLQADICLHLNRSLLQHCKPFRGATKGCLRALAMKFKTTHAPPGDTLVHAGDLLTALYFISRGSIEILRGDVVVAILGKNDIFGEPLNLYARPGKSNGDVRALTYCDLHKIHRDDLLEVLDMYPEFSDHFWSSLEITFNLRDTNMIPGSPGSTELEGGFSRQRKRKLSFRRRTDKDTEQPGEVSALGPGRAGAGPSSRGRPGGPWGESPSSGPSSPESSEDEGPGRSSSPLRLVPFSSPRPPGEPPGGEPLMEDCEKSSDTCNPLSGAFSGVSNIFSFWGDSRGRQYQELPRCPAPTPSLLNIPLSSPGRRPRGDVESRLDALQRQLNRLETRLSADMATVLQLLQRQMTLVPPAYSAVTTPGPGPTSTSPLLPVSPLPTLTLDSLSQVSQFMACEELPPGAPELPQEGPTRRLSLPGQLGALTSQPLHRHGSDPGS", "assay": "primary screen, population patch clamp on CHO cells stably expressing hERG", "units": {"hERG current change (%, negative = inhibition) at 1uM": "%"}}
{"smiles": "COc1cc(SC)ccc1C(=O)Nc1ccc2ncccc2c1", "hERG current change (%, negative = inhibition) at 1uM": 3.49}
{"smiles": "O=C(CN1CCCc2ccccc21)Nc1cc(S(=O)(=O)N2CCCC2)ccc1Cl", "hERG current change (%, negative = inhibition) at 1uM": -7.37}
{"smiles": "Cn1cc([N+](=O)[O-])c(C(=O)n2cccn2)n1", "hERG current change (%, negative = inhibition) at 1uM": 14.4}
{"smiles": "Cc1nn(C(C)C(=O)O)c(=O)c2ccccc12", "note": "(stereo not shown)", "hERG current change (%, negative = inhibition) at 1uM": 15.6}
{"smiles": "CCOC(=O)c1c(NC(=O)CSc2ccccc2C(=O)O)sc(C)c1C", "hERG current change (%, negative = inhibition) at 1uM": 12.3}
{"smiles": "O=C(Nc1ccccc1)NC1(C(=O)NCc2ccco2)CCCCC1", "hERG current change (%, negative = inhibition) at 1uM": 11.4}
{"smiles": "O=C1CCc2cc(S(=O)(=O)N3CCCC3C(=O)N3CCN(c4ccccc4)CC3)ccc2N1", "note": "(stereo not shown)", "hERG current change (%, negative = inhibition) at 1uM": -6.02}
{"smiles": "CCOC(=O)C1CCN(S(=O)(=O)c2ccc(OC)c(OC)c2)CC1", "hERG current change (%, negative = inhibition) at 1uM": 6.75}
{"smiles": "Cc1ccc(C)c(N(C(=O)CNC(=O)c2ccco2)C(C(=O)NC2CCCCC2)c2cccnc2)c1", "note": "(stereo not shown)", "hERG current change (%, negative = inhibition) at 1uM": 11.6}
{"smiles": "COc1cc(C#N)ccc1OCC(=O)N1CCc2ccccc2C1", "hERG current change (%, negative = inhibition) at 1uM": -23.2}
{"smiles": "Cn1cc2c(=O)n(/N=C/c3ccccc3)cnc2n1", "hERG current change (%, negative = inhibition) at 1uM": -0.636}
{"smiles": "NS(=O)(=O)c1ccc2nc(NC(=O)c3ccncc3)sc2c1", "hERG current change (%, negative = inhibition) at 1uM": 12}
{"smiles": "CC(C)C(C(=O)Nc1cccnc1)N1C(=O)c2ccccc2C1=O", "note": "(stereo not shown)", "hERG current change (%, negative = inhibition) at 1uM": -2.47}
{"smiles": "N#C/C(=C\\c1ccc(Cl)cc1)C(=O)Nc1cccnc1", "hERG current change (%, negative = inhibition) at 1uM": 11.9}
{"smiles": "CCOc1ccc(Nc2nc(N)c([N+](=O)[O-])c(N3CCN(C)CC3)n2)cc1", "hERG current change (%, negative = inhibition) at 1uM": -6.26}
{"smiles": "CCOC(=O)N1CCN(C(=O)c2ccc(OCC)c(OCC)c2)CC1", "hERG current change (%, negative = inhibition) at 1uM": 6.86}
{"smiles": "CC1CCCN(CC(=O)N2c3ccccc3Sc3ccccc32)C1", "note": "(stereo not shown)", "hERG current change (%, negative = inhibition) at 1uM": 14.9}
{"smiles": "Cn1c(SCc2ccccc2F)nc2cccnc21", "hERG current change (%, negative = inhibition) at 1uM": 2.5}
{"smiles": "COc1cc(/C=C/C(=O)O)cc(S(=O)(=O)Nc2ccc3c(c2)CCC3)c1OC", "hERG current change (%, negative = inhibition) at 1uM": 17.6}
{"smiles": "Cc1ccc(C(=O)Nc2nnc(-c3ccco3)o2)cc1C", "hERG current change (%, negative = inhibition) at 1uM": 7.58}
{"smiles": "Cc1cc(C(C)(C)C)c(O)c(C(C)(C)C)c1", "hERG current change (%, negative = inhibition) at 1uM": 17.1}
{"smiles": "CN(C)c1ccc(/C=N/NC(=O)CN2CCCCC2)cc1Br", "hERG current change (%, negative = inhibition) at 1uM": 4.32}
{"smiles": "CC(=O)Nc1ccc(NC(=O)/C(=C/c2ccco2)NC(=O)c2ccccc2)cc1", "hERG current change (%, negative = inhibition) at 1uM": 4.86}
{"smiles": "CCCn1nnc(NC(=O)c2sc3ccccc3c2Cl)n1", "hERG current change (%, negative = inhibition) at 1uM": 3.97}
{"smiles": "CC(=O)c1sc(=S)n(Cc2ccccc2)c1C", "hERG current change (%, negative = inhibition) at 1uM": 3.98}
